This is one part of the list.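 How the source made its calls: active = fold change of at least 2 over DMSO control; inactive = below 2-fold.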 Many values rest on one well or one pass, so single values are uncertain.
These molecules were tested on HEK293 ARE/NRF2-luciferase reporter (assay: ARE/NRF2 luciferase reporter activity, fold change over DMSO control; higher = stronger NRF2/ARE reporter activation). Conditions: 10 µM; 24 h.

ARE/NRF2 luciferase reporter activity, active:
O=c1c(O)c(-c2ccc(O)cc2)oc2cc(O)cc(O)c12 2.03
CN1CCc2cccc3c2[C@H]1Cc1ccc(O)c(O)c1-3 2.42
CC1(C)C=Cc2c(c3c(c4c(=O)c(-c5ccc(O)cc5)coc24)OC(C)(C)CC3)O1 2.47
COc1ccc(CC(=O)c2ccc(O)cc2O)cc1 2.46

ARE/NRF2 luciferase reporter activity, inactive:
COc1ccc(-c2coc3c(OC)c(OC)cc(O)c3c2=O)cc1 1.2
CC(C)=CCC/C(C)=C/COc1ccc2ccc(=O)oc2c1 1.64
CCC1NC(=O)c2cc(S(N)(=O)=O)c(Cl)cc2N1 (centres undefined) 0.88
O=S(=O)(O)NC1CCCCC1 1.08
COc1ccc2c(c1)c(CC(=O)O)c(C)n2C(=O)c1ccc(Cl)cc1 0.97
Nc1ncnc2c1ncn2[C@@H]1O[C@H](COP(=O)(O)O)[C@@H](O)[C@H]1O 0.976
NS(=O)(=O)c1cc2c(cc1Cl)N=C(CSCc1ccccc1)NS2(=O)=O 0.9
O=C(CCc1ccc(O)cc1)c1c(O)cc(O)cc1O[C@@H]1OC(CO)[C@@H](O)[C@@H](O)C1O (some centres undefined) 0.844
c1ccc2c(Cc3c[nH]c4ccccc34)c[nH]c2c1 0.714
CCCCCCc1ccc(O)cc1O.Nc1c2ccccc2nc2ccccc12 0.398
COC(=O)[C@@H]1[C@H]2C[C@H]3c4[nH]c5ccccc5c4CCN3C[C@@H]2CC[C@@H]1O 0.838
COc1cc(OC)c(C(C)=O)c(O)c1C 0.525
CC1=C(/C=C/C(C)=C/C=C/C(C)=C/CO)C(C)(C)CCC1 0.178
CCC(C(N)=O)c1ccccc1 (centres undefined) 1.17
NCC(=O)CCC(=O)O 1.3
COC(=O)[C@]1(C)CCC[C@]2(C)c3ccc(C(C)C)cc3C(=O)CC12 (some centres undefined) 0.259
O=C(O)c1ccc(S(=O)(=O)N(Cl)Cl)cc1 1.01
O=Cc1ccc(O)c(O)c1O 1.21
OCC(O)C(O)C(O)C(O)C(O)CO (centres undefined) 0.882
CC(=O)OCC(=O)[C@H]1CC[C@H]2[C@@H]3CC=C4C[C@@H](O)CC[C@]4(C)[C@H]3CC[C@]12C 1.1
NC(C(=O)O)C(O)C(=O)O (stereo not drawn) [d,l-threo-3-HYDROXYASPARTIC ACID] 0.952
CC(C)/N=c1\cc2n(-c3ccc(Cl)cc3)c3ccccc3nc-2cc1Nc1ccc(Cl)cc1 0.0837
CC1=CC2C(CC1=O)C(C)=CCC2C(C)C (centres undefined) 0.072
CO[C@H]1O[C@@H]2O[C@@]3(C)CC[C@H]4[C@H](C)CC[C@@H]([C@H]1C)[C@@]24OO3 0.451
COc1cc(-c2coc3cc(O[C@@H]4O[C@H](CO)[C@@H](O)[C@H](O)[C@H]4O)c(OC)c(O)c3c2=O)cc(O)c1OC 1.91
